Results: ChEMBL document CHEMBL1944624, “Synthesis and antimalarial and antituberculosis activities of a series of natural and unnatural 4-methoxy-6-styryl-pyran-2-ones, dihydro analogues and photo-dimers” (Bioorg Med Chem, 2012)
Values after ≈ are worked out from the molar mass of the structure shown.

System: Mycobacterium tuberculosis
Settings: H37Rv

## COc1cc(CCc2ccc3c(c2)OCO3)oc(=O)c1
  MIC: > 360 µM

## COc1cc(/C=C/c2ccc(OC)c(OC)c2)oc(=O)c1
  MIC: > 350 µM

## COc1cc(/C=C/c2cccc([N+](=O)[O-])c2)oc(=O)c1
  MIC: > 370 µM

## COc1cc(/C=C/c2ccc([N+](=O)[O-])cc2)oc(=O)c1
  MIC: > 370 µM

## COc1cc(/C=C/c2ccc(C(C)(C)C)cc2)oc(=O)c1
  MIC: > 350 µM

## COc1cc(/C=C/c2ccc3c(c2)OCO3)oc(=O)c1
  MIC: > 370 µM

## COc1cc(/C=C/c2cccc(Oc3ccccc3)c2)oc(=O)c1
  MIC: > 310 µM

## COc1cc(/C=C/c2cccc(Oc3ccc(C(C)(C)C)cc3)c2)oc(=O)c1
  MIC: > 270 µM

## COc1cc(/C=C/C=C/c2ccccc2)oc(=O)c1
  MIC: > 390 µM

## COc1cc(/C=C/C=C/c2ccc(N(C)C)cc2)oc(=O)c1
  MIC: 170 µM (≈ 50.6 µg/mL)

## COc1cc(/C=C/c2ccco2)oc(=O)c1
  MIC: > 460 µM

## COc1cc(/C=C/c2cccc3ccccc23)oc(=O)c1
  MIC: > 360 µM

## COc1cc(/C=C/c2ccc3ccccc3c2)oc(=O)c1
  MIC: > 360 µM

## COc1cc(/C=C/c2ccc(/C=C/c3cc(OC)cc(=O)o3)cc2)oc(=O)c1
  MIC: > 260 µM

## COc1cc(CCc2ccc(C(C)(C)C)cc2)oc(=O)c1
  MIC: 170 µM (≈ 48.7 µg/mL)

## COc1cc(CCc2ccc(OC)c(OC)c2)oc(=O)c1
  MIC: > 340 µM

## COc1cc(CCc2cccc(Oc3ccc(C(C)(C)C)cc3)c2)oc(=O)c1
  MIC: 130 µM (≈ 49.2 µg/mL)

## COc1cc(CCc2cccc3ccccc23)oc(=O)c1
  MIC: 270 µM (≈ 75.7 µg/mL)

## COc1cc(CCc2ccc3ccccc3c2)oc(=O)c1
  MIC: 180 µM (≈ 50.5 µg/mL)

## COc1cc(CCc2ccc(CCc3cc(OC)cc(=O)o3)cc2)oc(=O)c1
  MIC: > 260 µM

## COc1cc(=O)oc([C@H]2[C@H](c3ccc(OC)c(OC)c3)[C@H](c3cc(OC)cc(=O)o3)[C@H]2c2ccc(OC)c(OC)c2)c1
  MIC: > 170 µM

## COc1cc(=O)oc([C@H]2[C@H](c3ccc4ccccc4c3)[C@H](c3cc(OC)cc(=O)o3)[C@H]2c2ccc3ccccc3c2)c1
  MIC: > 180 µM

## COc1cc([C@@H]2[C@@H](c3ccccc3)[C@@H](c3ccccc3)[C@@H]2c2cc(OC)cc(=O)o2)oc(=O)c1
  MIC: > 220 µM

## COc1cc([C@@H]2[C@@H](c3ccc4c(c3)OCO4)[C@@H](c3ccc4c(c3)OCO4)[C@@H]2c2cc(OC)cc(=O)o2)oc(=O)c1
  MIC: > 180 µM

## COC1=CC(=O)O[C@]2(/C=C/c3ccc(C(C)(C)C)cc3)[C@H]1[C@H](c1ccc(C(C)(C)C)cc1)[C@H]2c1cc(OC)cc(=O)o1 (racemic)
  MIC: > 180 µM

## COC1=CC(=O)O[C@]2(/C=C/c3cccc(Oc4ccc(C(C)(C)C)cc4)c3)[C@H]1[C@H](c1cccc(Oc3ccc(C(C)(C)C)cc3)c1)[C@H]2c1cc(OC)cc(=O)o1 (racemic)
  MIC: > 130 µM

## COC1=CC(=O)O[C@]2(/C=C/c3ccccc3)[C@H]1[C@H](c1ccccc1)[C@H]2c1cc(OC)cc(=O)o1 (relative stereo)
  MIC: > 220 µM

## COC1=CC(=O)O[C@]2(/C=C/c3ccc(OC)c(OC)c3)[C@H]1[C@H](c1ccc(OC)c(OC)c1)[C@H]2c1cc(OC)cc(=O)o1 (relative stereo)
  MIC: > 170 µM

## COc1cc(/C=C/c2ccccc2)oc(=O)c1 [DESMETHOXYYANGONIN]
  MIC: > 440 µM

## COc1cc(CCc2ccccc2)oc(=O)c1 [DIHYDRO-5,6-DEHYDROKAWAIN]
  MIC: > 430 µM

## NNC(=O)c1ccncc1 [ISONIAZID]
  MIC: 0.22 µM (≈ 0.0302 µg/mL)
